Assay results from the supplement of paper PMC3334620.
The full ranking holds about 33,000 sequences; the median of “E-score (-0.5 to 0.5)” is about -0.012, and the highest 2% start at about 0.27. This is one part of the list.

biological target: T1, Vhr1 (UniProt P40522); experiment: PBM E-score (8-mer binding enrichment) (E-score (-0.5 to 0.5)); higher = stronger / more preferred TF binding; most listed sequences are background and not binding sites; conditions: protein concentration: 200 nM; construct: GST-full length
T1 sequence: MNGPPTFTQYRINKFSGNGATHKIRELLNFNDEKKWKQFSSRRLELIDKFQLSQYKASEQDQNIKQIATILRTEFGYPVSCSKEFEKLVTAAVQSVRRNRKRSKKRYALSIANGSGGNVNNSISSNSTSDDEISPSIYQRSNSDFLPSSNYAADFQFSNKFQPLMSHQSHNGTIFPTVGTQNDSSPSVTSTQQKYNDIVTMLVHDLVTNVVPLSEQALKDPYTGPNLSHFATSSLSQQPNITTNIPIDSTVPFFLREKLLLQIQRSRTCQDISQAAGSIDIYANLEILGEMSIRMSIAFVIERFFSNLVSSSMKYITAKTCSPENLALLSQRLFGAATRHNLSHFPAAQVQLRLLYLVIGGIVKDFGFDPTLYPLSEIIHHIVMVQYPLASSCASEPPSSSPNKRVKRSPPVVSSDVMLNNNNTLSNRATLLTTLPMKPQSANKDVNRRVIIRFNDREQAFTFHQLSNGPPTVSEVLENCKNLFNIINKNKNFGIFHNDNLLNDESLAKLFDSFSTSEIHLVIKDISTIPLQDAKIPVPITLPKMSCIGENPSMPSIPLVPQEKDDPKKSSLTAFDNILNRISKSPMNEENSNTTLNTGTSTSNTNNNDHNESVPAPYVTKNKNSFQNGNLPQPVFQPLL
In short: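 Universal all-10-mer Agilent arrays, fresh or stripped once, were converted to double-stranded form by primer extension. GST-tagged yeast transcription factors from PURExpress in vitro transcription/translation, full-length or DNA-binding domain only, were applied at about 100-200 nM and detected with fluorescent anti-GST. After masliner normalisation, the Universal PBM Analysis Suite scored each ungapped eight-base word together with its reverse complement by E-score.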

Sequence | PBM E-score
GCCGTCAA | -0.189
CGAGCTTA | -0.103
CCTGATCC | 0.124
AGCGACAA | -0.136
AAGGTTTG | -0.035
CTTCTGCC | -0.136
GTTTGGCA | -0.147
CACGGGGG | -0.0342
TGACCTCA | -0.11
CTTGGCAA | -0.277
CAATGCTG | -0.0939
GGAGTACA | 0.0826
CAAAAGCG | 0.0566
GGAATTCA | 0.0856
ACAAAACT | -0.0403
CGTCGTAC | -0.0401
ACTGGAGC | -0.108
GGCACGAA | 0.0919
CAGATCTG | -0.00609
AATTAAGT | -0.207
CGACAAAC | -0.00285
AATTCAGA | -0.128

Sequence | PBM E-score
CCAGCAGA | 0.0731
CTGCAAGC | -0.059
CATCGGAG | -0.127
CTGATCAA | -0.0933
AATCTAGG | -0.0313
ACAGTGTG | 0.142
AGCGTGTA | -0.0491
CCAAAAGG | -0.308
GTTGATCA | 0.0765
GAATAGAC | -0.152
GTGGGTGA | 0.331
ACTGATGA | 0.0606
GAAACCGA | -0.0749
CCTCAATC | 0.0673
ACATAATA | 0.186
ACTTGGAA | 0.0755
ATCTGGCA | -0.22
CCAGACGA | 0.0274
ACGGCAAG | -0.032
AATGCCAC | -0.0244
GTCGTATA | 0.0758
AAGGAGCT | -0.303

Sequence | PBM E-score
CTACATGC | -0.114
ACATCGGC | -0.056
GCATTCAC | -0.0931
ACAATAGT | 0.14
AAGAATAA | -0.182
AACAGACG | -0.0627
AAACTTCG | -0.32
GCAAAGAC | -0.0646
AGGGCTCC | -0.358
GGGACATA | -0.0325
CCTTGTCG | -0.233
ATCTCATG | 0.189
AATGGAAC | -0.0778
AAGAATAG | -0.0631
ACCAGAGC | 0.0446
AACTCAAG | 0.0211
AGTTGGTA | 0.162
ACTTGGCG | 0.0405
GCGACCCC | 0.0605
CGAAAGCG | -0.0395
AAAATTGA | -0.239
AGTTTGCC | 0.0585

Sequence | PBM E-score
CCCTACCA | 0.0219
TGGTCTAA | -0.0689
CTACTGTA | 0.197
GACAGGCC | 0.0361
GCGGCAGA | -0.152
CGAAAGGC | -0.0848
GATTGTGA | 0.144
GACAGCTC | -0.0639
GTTGAGCA | -0.112
GAAAGGAC | -0.0738
CGAAGCGC | -0.142
TACTCTCA | -0.0517
CCGAGCCC | -0.0889
CGCCGGTC | -0.0526
ATAGTTAA | -0.0692
CCTGAGAG | -0.105
AAGCCACC | -0.106
ACCCGTTC | 0.0111
AATTGGCT | -0.0912
CGTTTAAC | -0.12
